# Measurements: PubChem BioAssay (NCATS)
# Values joined by “and” are separate entries in the source; they are usually repeats but may differ in a detail not shown here. Equal values may be shown once. Inconclusive results, whose numbers are uncertain, are shown with a selection of clear calls. Potencies of inconclusive entries are doubtful fits and often do not repeat. Active and inactive are the calls of the source. Calls follow the shape of the dose curve; as a rule, active = well fitted curve in the direction sought with a large enough effect; inconclusive = small, poorly fitted or top-dose-only effect, or another doubt; inactive = no such curve, though single readings can be large; an effect the other way counts as inactive or inconclusive.
# Key:
# [1] = Viability qHTS for spleen associated tyrosine kinase inhibitor (SYKi) naive MV4-11 cells (AID 1963823); conditions: MV4-11 AML viability, CellTiter-Glo luminescence, 72 h; viability (% of control): at 45 µM (top of the series); also: nearly all actives have a fitted effect of over 40% in size
# Outline: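 qHTS, SYK inhibitor-naive MV4-11; 500 cells/well; 72 hr compound exposure, 37 C; CellTiter-Glo added, 10 min RT; luminescence read.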
# [2] = Viability qHTS for spleen associated tyrosine kinase inhibitor (SYKi) drug resistant MV4-11 cells (AID 1963824); conditions: SYKi-resistant MV4-11 viability, CellTiter-Glo, 72 h; series mostly up to 45 µM; also: nearly all actives have a fitted effect of over 35% in size
# Outline: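 SYK-inhibitor-resistant MV4-11 AML cells were seeded at 500 per well onto compound and cultured 72 hours (37 °C, 5% CO2). CellTiter-Glo was then added, and after 10 min at room temperature, luminescence gave viability.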
# [3] = Quantitative highthroughput screen to assess conditional lethalithy of NOMO1 cells grown in RPMI1640 with untreated serum (RPMI+s) (AID 1963876); conditions: NOMO1 AML cells in RPMI+serum, CellTiter-Glo viability, 48 h; viability: at 45.8 µM (top of the series); also: nearly all actives have a fitted effect of over 35% in size;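 as to Viability: 100% = DMSO wells and 0% = empty wells without cells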
# Outline: (§1)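 Each medium arm—HPLM with 10% dialyzed FBS, or RPMI1640 with 5 mM glucose and 10% untreated or dialyzed FBS—was screened against an 11-point, 3-fold compound titration for 48 h at 37 °C, with CellTiter-Glo luminescence as endpoint.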
# [4] = Quantitative highthroughput screen to assess conditional lethalithy of NOMO1 cells grown in RPMI1640 with dialyzed fetal bovine serum (RPMI+ds) (AID 1963877); conditions: NOMO1 in RPMI+dialyzed FBS viability, ATP luminescence, 48 h; series mostly up to 45.8 µM; also: nearly all actives have a fitted effect of over 30% in size;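 as to Viability: 100% = DMSO control wells and 0% = empty wells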
# Outline: as §1
# [5] = Quantitative highthroughput screen to assess conditional lethalithy of NOMO1 cells grown in Human Plasma-Like Medium with dialyzed fetal bovine serum (HPLM+ds) (AID 1963878); conditions: NOMO1 AML cells in HPLM+ds, CellTiter-Glo viability, 48 h; viability: at 45.8 µM (top of the series); also: nearly all actives have a fitted effect of over 35% in size
# Outline: as §1
# [6] = Quantitative highthroughput screen to assess conditional lethalithy of P12 Ichikawa cells grown in Human Plasma-Like Medium with dialyzed fetal bovine serum (HPLM+ds) (AID 1963879); conditions: ATP luminescence, 48 h; Potency: viability; series mostly up to 45.8 µM; also: nearly all actives have a fitted effect of over 35% in size
# Outline: as §1
# [7] = Quantitative highthroughput screen to assess conditional lethalithy of P12 Ichikawa cells grown in RPMI1640 with dialyzed fetal bovine serum (RPMI+ds) (AID 1963880); conditions: ATP luminescence, 48 h; Potency: P12-Ichikawa viability; series mostly up to 45.8 µM; also: nearly all actives have a fitted effect of over 35% in size
# Outline: as §1
# [8] = Quantitative highthroughput screen to assess conditional lethalithy of P12 Ichikawa cells grown in RPMI1640 with untreated serum (RPMI+s) (AID 1963881); conditions: ATP luminescence, 48 h; Potency: viability; series mostly up to 45.8 µM; also: nearly all actives have a fitted effect of over 35% in size;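 as to Viability: 100% = DMSO wells and 0% = empty wells without cells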
# Outline: as §1
# [9] = Quantitative highthroughput screen to assess conditional lethalithy of SEM cells grown in Human Plasma-Like Medium with dialyzed fetal bovine serum (HPLM+ds) (AID 1963882); conditions: SEM B-ALL cells in HPLM+ds, CellTiter-Glo viability, 48 h; series mostly up to 45.8 µM; also: nearly all actives have a fitted effect of over 35% in size
# Outline: as §1
# [10] = Quantitative highthroughput screen to assess conditional lethalithy of SEM cells grown in RPMI1640 with unreated serum (RPMI+s) (AID 1963883); conditions: SEM B-ALL cells, CellTiter-Glo viability, 48 h; viability: at 45.8 µM (top of the series); also: nearly all actives have a fitted effect of over 35% in size
# Outline: as §1
# [11] = Cellular viability qHTS for adrenocortical cancer (ACC) cell line SW-13 (AID 1963989); conditions: SW-13 ACC cells viability, CellTiter-Glo, 48 h; activity (max response): stronger effect = lower value; also: nearly all actives have a fitted effect of over 65% in size;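 as to activity (max response): cells grown in serum-free medium with ITS supplement; % is scaled to controls: 0 for no effect and ±100 for the full control effect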
# Outline: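 48 h treatment, SW-13 in ITS/DMEM serum-free; doses up to 46 uM; readout CellTiter-Glo luminescence; curve fit four-parameter logistic.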
# [12] = Cellular viability qHTS for adrenocortical cancer (ACC) cell line NCI-H295R (AID 1963990); conditions: CellTiter-Glo ATP luminescence, 48 h; activity change, negative = viability loss: at 46.1 µM (top of the series); also: nearly all actives have a fitted effect of over 60% in size
# Outline: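 Compound titrations (up to 46 uM final) are applied to NCI-H295R cultures for 48 h at 37C. Viable cell number is estimated by CellTiter-Glo signal, normalised to DMSO and doxorubicin controls.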
# [13] = Quantitative highthroughput screen to assess conditional lethalithy of SEM cells grown in RPMI1640 with dialyzed fetal bovine serum (RPMI+ds) (AID 1963884); conditions: SEM B-ALL cells, RPMI+dialyzed FBS, CellTiter-Glo viability, 48 h; viability: at 45.8 µM (top of the series); also: nearly all actives have a fitted effect of over 35% in size
# Outline: as §1
# Potency is read from the fitted curve at half-maximal effect; tags tell the direction and shape of the fitted curve.
Structure (SMILES),Potency [1],Potency [2],Potency [3],Potency [4],Potency [5],Potency [6],Potency [7],Potency [8],Potency [9],Potency [10],Potency [11],Potency [12],Potency [13],activity (max response) [11]
COc1ccccc1N1CCN(CC(O)COc2cccc3ccccc23)CC1 (stereo not given),"inconclusive: 14.8 µM [cytotoxic, partial curve]","inactive and inconclusive: 16.6 µM [cytotoxic, partial curve]","inconclusive: 26.4 µM [cytotoxic, single point]","inconclusive: 18.7 µM [cytotoxic, partial curve]","inconclusive: 26.4 µM [cytotoxic, single point]",inactive,"inconclusive: 11.8 µM [cytotoxic, partial curve, poor fit]",active: 13.2 µM,"inconclusive: 0.0015 µM [rising, full curve]","inconclusive: 18.7 µM [cytotoxic, partial curve, poor fit]","inconclusive: 23.1 µM [cytotoxic, single point]","inconclusive: 29.1 µM [cytotoxic, single point]",–,–
CCCCCCCCCCCCc1ccc(S(=O)(=O)Nc2nncs2)cc1,"active: 16.4 µM and inconclusive: 23.5 µM [cytotoxic, partial curve]","inactive and inconclusive: 33.2 µM [cytotoxic, single point]","inconclusive: 9.35 µM [cytotoxic, single point]",inactive,active: 7.43 µM,"inconclusive: 6.62 µM [cytotoxic, full curve]","inconclusive: 10.5 µM [cytotoxic, single point]",inactive,inactive,–,–,–,–,–
CCN1CCN(Cc2ccc(-c3cc4c(N[C@H](C)c5ccccc5)ncnc4[nH]3)cc2)CC1,"inconclusive: 1.05 µM [cytotoxic, full curve]",active: 1.86 µM,"inconclusive: 37.2 µM [cytotoxic, single point]","inconclusive: 20.9 µM [cytotoxic, partial curve]",active: 20.9 µM,"inconclusive: 29.6 µM [cytotoxic, single point]","inconclusive: 37.2 µM [cytotoxic, single point]","inconclusive: 37.2 µM [cytotoxic, single point]",–,–,active: 4.47 µM,active: 31.6 µM,active: 18.7 µM,–
O=C(CO)N1CCC(c2[nH]nc(-c3ccc(Cl)cc3)c2-c2ccncn2)CC1,"active: 2.31 µM and inconclusive: 662 nM [cytotoxic, full curve]","inconclusive: 14.8 µM [cytotoxic, partial curve]","inconclusive: 11.8 µM [cytotoxic, single point]","inconclusive: 11.8 µM [cytotoxic, single point]","inconclusive: 11.8 µM [cytotoxic, single point]","inconclusive: 9.35 µM [cytotoxic, single point]","inconclusive: 20.9 µM [cytotoxic, single point]","inconclusive: 7.43 µM [cytotoxic, partial curve, poor fit]","inconclusive: 16.6 µM [cytotoxic, partial curve]","inconclusive: 13.2 µM [cytotoxic, partial curve]",–,–,–,–
O=c1[nH]cnc2c1ncn2[C@H]1CC[C@@H](CO)O1,"inconclusive: 33.5 µM [cytotoxic, single point] and inactive","inconclusive: 33.5 µM [cytotoxic, single point] and inconclusive: 14.6 µM [cytotoxic, partial curve]","inconclusive: 23.5 µM [cytotoxic, single point]","inconclusive: 20.9 µM [cytotoxic, single point]","inconclusive: 13.2 µM [cytotoxic, partial curve]","inconclusive: 23.5 µM [cytotoxic, single point]",active: 16.6 µM,"inconclusive: 20.9 µM [cytotoxic, single point]",active: 18.7 µM,"inconclusive: 10.5 µM [cytotoxic, partial curve]",–,–,–,–
CC(C)C[C@H](NC(=O)[C@@H](O)[C@H](N)Cc1ccccc1)C(=O)O,inactive,"inconclusive: 18.6 µM [cytotoxic, partial curve]","inconclusive: 26.4 µM [cytotoxic, single point]",active: 20.9 µM,"inconclusive: 37.2 µM [cytotoxic, single point]","inconclusive: 33.2 µM [cytotoxic, single point]","inconclusive: 26.4 µM [cytotoxic, single point]","inconclusive: 29.6 µM [cytotoxic, single point]","inconclusive: 33.2 µM [cytotoxic, single point]","inconclusive: 33.2 µM [cytotoxic, single point]",–,–,"inconclusive: 29.6 µM [cytotoxic, single point]",–
CC[C@H](C)/C=C(C)/C=C/C1=CC2=CC(=O)[C@]3(C)OC(=O)[C@@H](C(C)=O)[C@@H]3C2=CO1,"inconclusive: 12.8 µM [cytotoxic, single point]","inconclusive: 10.1 µM [cytotoxic, single point]",–,–,–,–,–,–,–,–,–,–,–,–
CC(=O)N(C)C1(c2ccccc2)CCN(CCC[C@]2(c3ccc(Cl)c(Cl)c3)CCCN(C(=O)c3ccccc3)C2)CC1,active: 4.11 µM,"inconclusive: 5.17 µM [cytotoxic, single point]",active: 1.87 µM,active: 1.87 µM,active: 0.526 µM,active: 2.96 µM,active: 2.96 µM,active: 7.43 µM,–,–,–,–,active: 1.05 µM,–
C[C@@H]1CN(c2c(F)c(N)c3c(=O)c(C(=O)O)cn(C4CC4)c3c2F)C[C@H](C)N1,"inconclusive: 11.6 µM [cytotoxic, partial curve, poor fit] and inconclusive: 33.2 nM [cytotoxic, full curve, poor fit]","inactive and inconclusive: 23.5 µM [cytotoxic, single point]",inactive,inactive,"inconclusive: 0.407 µM [cytotoxic, full curve, poor fit]",inactive,"inconclusive: 1.02 µM [cytotoxic, partial curve, poor fit]","inconclusive: 1.15 µM [cytotoxic, full curve, poor fit]","inconclusive: 9.11 µM [cytotoxic, partial curve]","inconclusive: 8.12 µM [cytotoxic, partial curve]","inconclusive: 8.93 µM [cytotoxic, single point]","inconclusive: 15.9 µM [cytotoxic, single point]","inconclusive: 8.12 µM [cytotoxic, partial curve]",inactive: -1.88%
c1ccc(-c2oc3ncnc(NC[C@@H]4CCCO4)c3c2-c2ccccc2)cc1,"inconclusive: 7.42 µM [cytotoxic, full curve, poor fit]","inconclusive: 5.9 µM [cytotoxic, full curve, poor fit] and active: 13 µM","inconclusive: 33.2 µM [cytotoxic, single point]","inconclusive: 23.5 µM [cytotoxic, single point]","inconclusive: 23.5 µM [cytotoxic, single point]","inconclusive: 20.9 µM [cytotoxic, single point]","inconclusive: 29.6 µM [cytotoxic, single point]","inconclusive: 26.4 µM [cytotoxic, single point]",inactive,"inconclusive: 26.4 µM [cytotoxic, single point]",–,"inconclusive: 35.5 µM [cytotoxic, single point]","inconclusive: 37.2 µM [cytotoxic, single point]",–
CCOC(=O)[C@@H](N)Cc1ccc(-c2cc(O[C@H](c3ccc(Cl)cc3-n3ccc(C)n3)C(F)(F)F)nc(N)n2)cc1,"inconclusive: 25.9 µM [cytotoxic, single point] and active: 8.33 µM","inconclusive: 16.4 µM [cytotoxic, single point]","inconclusive: 29.6 µM [cytotoxic, single point]","inconclusive: 26.4 µM [cytotoxic, single point]","inconclusive: 33.2 µM [cytotoxic, single point]","inconclusive: 37.2 µM [cytotoxic, single point]","inconclusive: 37.2 µM [cytotoxic, single point]","inconclusive: 23.5 µM [cytotoxic, single point]","inconclusive: 33.2 µM [cytotoxic, single point]","inconclusive: 37.2 µM [cytotoxic, single point]","inconclusive: 35.5 µM [cytotoxic, single point]","inconclusive: 35.5 µM [cytotoxic, single point]","inconclusive: 37.2 µM [cytotoxic, single point]",–
C#C[C@]1(O)CC[C@H]2[C@@H]3CCC4=CC(=O)CC[C@@H]4[C@H]3CC[C@@]21CC,"inconclusive: 21.1 µM [cytotoxic, partial curve] and inconclusive: 13.2 µM [cytotoxic, partial curve, poor fit]","inconclusive: 3.76 µM [cytotoxic, partial curve, poor fit]",–,–,–,–,–,–,–,–,–,–,–,–
